From article PMC11603075 (Communications Biology, 2024)

Test system: KDM4D
Experiment: LC–MS conversion (RDM and hydroxylation), KDM4D
Assay type: biochemical, human
Details: 120 min; for % +16 Da / % -14 Da: 10 µM peptide; for % product formation (combined RDM and apparent hydroxylation): LC–MS
Description: MS-based screening assays with peptides and calf thymus histones were as reported; see Supplementary Table 6 for conditions. Time course assays were based on reported procedures. In brief, equal volumes of the enzyme and substrate solutions were combined to initiate the reaction; 10 µL of 2% (v/v) formic acid (HCOOH) in ddH2O or 100% methanol was added to 10 µL of the reaction mixture to quench reactions at different time points. Unless otherwise stated, time course assays were carried out in triplicate. In some cases, LC–MS was used instead of MALDI-TOF MS to avoid a MALDI matrix induced artefact with the hydroxylated product (Supplementary Fig. 16).
Supplementary Figure 6 Conversion of H2a peptides with increased concentrations of KDM4D.
Comparison of combined RDM and apparent hydroxylation activities of KDM4E and KDM4D with H2a(1– 20) and H2a(1–20 )R3 me2a. (a) Representative LC–MS spectra showing (120-minute incubation) (from top to bottom) KDM4E at 2 µM, KDM4D at 2 µM, and KDM4D at 10 µM with (from left to right) H2 a(1 –2 0 ) a n d […]
shift (hydroxylation). Charge state of labelled ions: [M + H]5+. *Low-level peaks indicating ~5% – 14 Da/+16 Da. (b) Bar graph comparing % product formation by KDM4E and KDM4D of H2a(1–20) and H2a(1– 20)R3me2a; n = 3 (independent assays). Se e Supplementary Table 6 for assay conditions.
(1 picture or pasted object on this page, not shown here)
Supplementary Figure 13 Reactivity of KDM4D with the H2a peptide panel. Representative LC–MS (12 0-minute incubation) of KDM4D at 10 µM with: (a) H2 a(1 –20)R20me2a, (b) H 2 a( 1–20)R20 me2 s, (c) H 2 a( 1– […]
was observed. Charge state of labelled ions: [M + H]5+. Y-axis: relative abundance (%). (e) Bar graph and (f) […]
21)K9me3. n = 2/3 (independent assays). Conditions: 10 µM peptide, 200 µM 2OG, 100 µM sodium L-ascorbate, 10 µM (NH4)2F e ( SO 4)2, and 50 mM HEPES (pH 7.5). […]
[ E nz ym e] [Peptide] [2OG] [Ascorbate] [(NH4)2F e(S O4)2] [TCEP] Buffer pH7.5 Enzyme Cognate substrate (mM) (mM) (mM) (mM) (mM) (mM) [HE PE S]
Supplementary Table 6 Summary of MS assay conditions for substrate screening. These conditions enabled efficient turnover of established substrates. Reactions were carried out at 37 °C unless otherwise st ated. […]

Substance | % +16 Da (KDM4D 10 µM, replicate 1) | % -14 Da (KDM4D 10 µM, replicate 1) | % +16 Da (KDM4D 10 µM, replicate 2) | % -14 Da (KDM4D 10 µM, replicate 2) | % +16 Da (KDM4D 10 µM, replicate 3) | % -14 Da (KDM4D 10 µM, replicate 3) | % product formation (combined RDM and apparent hydroxylation) (KDM4D 2 µM, replicate 1) | % product formation (combined RDM and apparent hydroxylation) (KDM4D 2 µM, replicate 2) | % product formation (combined RDM and apparent hydroxylation) (KDM4D 2 µM, replicate 3) | % product formation (combined RDM and apparent hydroxylation) (KDM4D 10 µM, replicate 1) | % product formation (combined RDM and apparent hydroxylation) (KDM4D 10 µM, replicate 2) | % product formation (combined RDM and apparent hydroxylation) (KDM4D 10 µM, replicate 3)
AR T KQ T AR K[ me 3] ST GGKAPR KQ L A [H3(1–21)K9me3, reference compound] | 0% | 95.001% | 0% | 95.7063% | 0% | 91.3565% | – | – | – | – | – | –
Ac - SGR [ me 2a ] GKQ GGKAR AKAKT R SSR [H2a(1–20)R3me2a, H2a(1–20)R3me2a without a biotin tag] | 3.625% | 8.926% | 2.853% | 8.658% | – | – | 14.2166% | 14.2231% | 11.5331% | 12.5507% | 11.5106% | 10.7196%
